Some of the results follow.
What was measured:
Experiment in all cases: glycan array binding signal (z-score within array); higher = stronger binding
Conditions in all cases: glycan notation: IUPAC condensed, linker removed
[1] = molecular target: Fuc(a1-3)[Gal3S(b1-4)]GlcNAc6S
How it was run: (§1)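 From the Consortium for Functional Glycomics database, 3228 arrays were curated, keeping only those whose protein sequence was available. Binding is given as a within-array Z-score averaged across arrays sharing a protein sequence and across linkers. Negative Z-scores can be read as non-binding.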

[2] = molecular target: Fuc(a1-3)[GalNAc(b1-4)]GlcNAc
How it was run: as §1

[3] = molecular target: Fuc(a1-3)[GalNAc(b1-4)]GlcNAc6S
How it was run: as §1

Fuc(a1-4)GlcNAc = molecular target: Fuc(a1-4)GlcNAc
How it was run: as §1

Fuc(b1-3)GlcNAc = molecular target: Fuc(b1-3)GlcNAc
How it was run: as §1

Gal(a1-2)Gal = molecular target: Gal(a1-2)Gal
How it was run: as §1

Gal(a1-3)Gal = molecular target: Gal(a1-3)Gal
How it was run: as §1

Gal(a1-3)Gal(b1-3)GlcNAc = molecular target: Gal(a1-3)Gal(b1-3)GlcNAc
How it was run: as §1

[4] = molecular target: Gal(a1-3)Gal(b1-3)GlcNAc(b1-2)Man
How it was run: as §1

[5] = molecular target: Gal(a1-3)Gal(b1-3)GlcNAc(b1-2)Man(a1-3)[Gal(a1-3)Gal(b1-3)GlcNAc(b1-2)Man(a1-6)]Man(b1-4)GlcNAc(b1-4)GlcNAc
How it was run: as §1

[6] = molecular target: Gal(a1-3)Gal(b1-3)GlcNAc(b1-3)GalNAc
How it was run: as §1

[7] = molecular target: Gal(a1-3)Gal(b1-3)GlcNAc(b1-6)GalNAc
How it was run: as §1

[8] = molecular target: Gal(a1-3)Gal(b1-3)[Fuc(a1-4)]GlcNAc(b1-2)Man(a1-3)[Gal(a1-3)Gal(b1-3)[Fuc(a1-4)]GlcNAc(b1-2)Man(a1-6)]Man(b1-4)GlcNAc(b1-4)GlcNAc
How it was run: as §1

Gal(a1-3)Gal(b1-4)Glc = molecular target: Gal(a1-3)Gal(b1-4)Glc
How it was run: as §1

Gal(a1-3)Gal(b1-4)GlcNAc = molecular target: Gal(a1-3)Gal(b1-4)GlcNAc
How it was run: as §1

[9] = molecular target: Gal(a1-3)Gal(b1-4)GlcNAc(b1-2)Man
How it was run: as §1

[10] = molecular target: Gal(a1-3)Gal(b1-4)GlcNAc(b1-2)Man(a1-3)[Gal(a1-3)Gal(b1-4)GlcNAc(b1-2)Man(a1-6)]Man(b1-4)GlcNAc(b1-4)GlcNAc
How it was run: as §1

[11] = molecular target: Gal(a1-3)Gal(b1-4)GlcNAc(b1-3)GalNAc
How it was run: as §1

[12] = molecular target: Gal(a1-3)Gal(b1-4)GlcNAc(b1-6)GalNAc
How it was run: as §1

[13] = molecular target: Gal(a1-3)Gal(b1-4)[Fuc(a1-3)]GlcNAc
How it was run: as §1

[14] = molecular target: Gal(a1-3)Gal(b1-4)[Fuc(a1-3)]GlcNAc(b1-2)Man(a1-3)[Gal(a1-3)Gal(b1-4)[Fuc(a1-3)]GlcNAc(b1-2)Man(a1-6)]Man(b1-4)GlcNAc(b1-4)GlcNAc
How it was run: as §1

Gal(a1-3)GalNAc = molecular target: Gal(a1-3)GalNAc
How it was run: as §1

[15] = molecular target: Gal(a1-3)[Gal(a1-4)]Gal(b1-4)GlcNAc
How it was run: as §1

[16] = molecular target: Gal(a1-4)Gal(b1-3)GlcNAc(b1-2)Man(a1-3)[Gal(a1-4)Gal(b1-3)GlcNAc(b1-2)Man(a1-6)]Man(b1-4)GlcNAc(b1-4)GlcNAc
How it was run: as §1

Gal(a1-4)Gal(b1-4)Glc = molecular target: Gal(a1-4)Gal(b1-4)Glc
How it was run: as §1

Gal(a1-4)Gal(b1-4)GlcNAc = molecular target: Gal(a1-4)Gal(b1-4)GlcNAc
How it was run: as §1

[17] = molecular target: Gal(a1-4)Gal(b1-4)GlcNAc(b1-2)Man(a1-3)[Gal(a1-4)Gal(b1-4)GlcNAc(b1-2)Man(a1-6)]Man(b1-4)GlcNAc(b1-4)GlcNAc
How it was run: as §1

[18] = molecular target: Gal(a1-4)Gal(b1-4)GlcNAc(b1-3)Gal(b1-4)Glc
How it was run: as §1

Gal(a1-4)GlcNAc = molecular target: Gal(a1-4)GlcNAc
How it was run: as §1

Gal(a1-6)Glc = molecular target: Gal(a1-6)Glc
How it was run: as §1

Gal(b1-2)Gal = molecular target: Gal(b1-2)Gal
How it was run: as §1

Gal(b1-3)Gal = molecular target: Gal(b1-3)Gal
How it was run: as §1

Gal(b1-3)Gal(b1-4)GlcNAc = molecular target: Gal(b1-3)Gal(b1-4)GlcNAc
How it was run: as §1

Gal(b1-3)GalNAc = molecular target: Gal(b1-3)GalNAc
How it was run: as §1

[19] = molecular target: Gal(b1-3)GalNAc(a1-3)[Fuc(a1-2)]Gal(b1-4)Glc
How it was run: as §1

[20] = molecular target: Gal(b1-3)GalNAc(a1-3)[Fuc(a1-2)]Gal(b1-4)GlcNAc
How it was run: as §1

Gal(b1-3)GalNAc(b1-3)Gal = molecular target: Gal(b1-3)GalNAc(b1-3)Gal
How it was run: as §1

[21] = molecular target: Gal(b1-3)GalNAc(b1-3)Gal(a1-4)Gal(b1-4)Glc
How it was run: as §1

[22] = molecular target: Gal(b1-3)GalNAc(b1-4)Gal(b1-4)Glc
How it was run: as §1

[23] = molecular target: Gal(b1-3)GalNAc(b1-4)[Neu5Ac(a2-3)]Gal(b1-4)Glc
How it was run: as §1

Gal(b1-3)GlcNAc = molecular target: Gal(b1-3)GlcNAc
How it was run: as §1

[24] = molecular target: Gal(b1-3)GlcNAc(a1-3)Gal(b1-4)GlcNAc
How it was run: as §1

[25] = molecular target: Gal(b1-3)GlcNAc(a1-6)Gal(b1-4)GlcNAc
How it was run: as §1

Gal(b1-3)GlcNAc(b1-2)Man = molecular target: Gal(b1-3)GlcNAc(b1-2)Man
How it was run: as §1

[26] = molecular target: Gal(b1-3)GlcNAc(b1-2)Man(a1-3)[Gal(b1-3)GlcNAc(b1-2)Man(a1-6)]Man(b1-4)GlcNAc(b1-4)GlcNAc
How it was run: as §1

B1: AidA (Burkholderia cenocepacia) (protein)
chain: MSRVTDVLVSFDTETILKKYPNPSKNPAAPTLIDWRYVYMVTNQDNVISGQAGGELDLKAQVGDLIRWRETSLSLGFENQVVFYKFIGNVGNDLISTPTPRVAEASIPVPNTSKPEVPTCQKVANYYWSSECLKVGRVTYHFQFQIIDRNCQSQGCFSWDPFISIHN
- glycan array binding signal (z-score) [1]: -0.078
- glycan array binding signal (z-score) [2]: -0.281
- glycan array binding signal (z-score) [3]: 0.074
- glycan array binding signal (z-score) (Fuc(a1-4)GlcNAc): 3.1
- glycan array binding signal (z-score) (Fuc(b1-3)GlcNAc): -0.007
- glycan array binding signal (z-score) (Gal(a1-2)Gal): 0.943
- glycan array binding signal (z-score) (Gal(a1-3)Gal): 1.06
- glycan array binding signal (z-score) (Gal(a1-3)Gal(b1-3)GlcNAc): 0.178
- glycan array binding signal (z-score) [4]: -0.304
- glycan array binding signal (z-score) [5]: 0.231
- glycan array binding signal (z-score) [6]: -0.32
- glycan array binding signal (z-score) [7]: -0.754
- glycan array binding signal (z-score) [8]: 0.408
- glycan array binding signal (z-score) (Gal(a1-3)Gal(b1-4)Glc): -0.484
- glycan array binding signal (z-score) (Gal(a1-3)Gal(b1-4)GlcNAc): -0.134
- glycan array binding signal (z-score) [9]: 0
- glycan array binding signal (z-score) [10]: -0.2
- glycan array binding signal (z-score) [11]: 0.153
- glycan array binding signal (z-score) [12]: 0.471
- glycan array binding signal (z-score) [13]: -0.421
- glycan array binding signal (z-score) [14]: 0.688
- glycan array binding signal (z-score) (Gal(a1-3)GalNAc): -0.365
- glycan array binding signal (z-score) [15]: 0.54
- glycan array binding signal (z-score) [16]: 0.346
- glycan array binding signal (z-score) (Gal(a1-4)Gal(b1-4)Glc): -0.129
- glycan array binding signal (z-score) (Gal(a1-4)Gal(b1-4)GlcNAc): 0.566
- glycan array binding signal (z-score) [17]: 0.711
- glycan array binding signal (z-score) [18]: -0.277
- glycan array binding signal (z-score) (Gal(a1-4)GlcNAc): 0.459
- glycan array binding signal (z-score) (Gal(a1-6)Glc): 0.024
- glycan array binding signal (z-score) (Gal(b1-2)Gal): -0.457
- glycan array binding signal (z-score) (Gal(b1-3)Gal): 0.911
- glycan array binding signal (z-score) (Gal(b1-3)Gal(b1-4)GlcNAc): -0.175
- glycan array binding signal (z-score) (Gal(b1-3)GalNAc): 0.314
- glycan array binding signal (z-score) [19]: -0.092
- glycan array binding signal (z-score) [20]: -0.722
- glycan array binding signal (z-score) (Gal(b1-3)GalNAc(b1-3)Gal): 0.156
- glycan array binding signal (z-score) [21]: 0.445
- glycan array binding signal (z-score) [22]: 0.223
- glycan array binding signal (z-score) [23]: 0.172
- glycan array binding signal (z-score) (Gal(b1-3)GlcNAc): -0.602
- glycan array binding signal (z-score) [24]: 0.237
- glycan array binding signal (z-score) [25]: -0.446
- glycan array binding signal (z-score) (Gal(b1-3)GlcNAc(b1-2)Man): -0.363
- glycan array binding signal (z-score) [26]: -0.142

Reference: the supplement of paper PMC8728848
